Experiment [1] concerns the target Flag-tagged full-length (FL) USP10, wild type (UniProt Q14694). Description: co-IP; Flag-tagged DUBs expressed in HEK293T cells; lysates precipitated with Flag beads, blotted for RUNX1 and Flag.
In experiment [2] the target is Flag-tagged USP7 (UniProt Q93009). The description is as above.
For experiment [3], the target named is T1, Flag-tagged USP36 (UniProt Q9P275).
T1 sequence: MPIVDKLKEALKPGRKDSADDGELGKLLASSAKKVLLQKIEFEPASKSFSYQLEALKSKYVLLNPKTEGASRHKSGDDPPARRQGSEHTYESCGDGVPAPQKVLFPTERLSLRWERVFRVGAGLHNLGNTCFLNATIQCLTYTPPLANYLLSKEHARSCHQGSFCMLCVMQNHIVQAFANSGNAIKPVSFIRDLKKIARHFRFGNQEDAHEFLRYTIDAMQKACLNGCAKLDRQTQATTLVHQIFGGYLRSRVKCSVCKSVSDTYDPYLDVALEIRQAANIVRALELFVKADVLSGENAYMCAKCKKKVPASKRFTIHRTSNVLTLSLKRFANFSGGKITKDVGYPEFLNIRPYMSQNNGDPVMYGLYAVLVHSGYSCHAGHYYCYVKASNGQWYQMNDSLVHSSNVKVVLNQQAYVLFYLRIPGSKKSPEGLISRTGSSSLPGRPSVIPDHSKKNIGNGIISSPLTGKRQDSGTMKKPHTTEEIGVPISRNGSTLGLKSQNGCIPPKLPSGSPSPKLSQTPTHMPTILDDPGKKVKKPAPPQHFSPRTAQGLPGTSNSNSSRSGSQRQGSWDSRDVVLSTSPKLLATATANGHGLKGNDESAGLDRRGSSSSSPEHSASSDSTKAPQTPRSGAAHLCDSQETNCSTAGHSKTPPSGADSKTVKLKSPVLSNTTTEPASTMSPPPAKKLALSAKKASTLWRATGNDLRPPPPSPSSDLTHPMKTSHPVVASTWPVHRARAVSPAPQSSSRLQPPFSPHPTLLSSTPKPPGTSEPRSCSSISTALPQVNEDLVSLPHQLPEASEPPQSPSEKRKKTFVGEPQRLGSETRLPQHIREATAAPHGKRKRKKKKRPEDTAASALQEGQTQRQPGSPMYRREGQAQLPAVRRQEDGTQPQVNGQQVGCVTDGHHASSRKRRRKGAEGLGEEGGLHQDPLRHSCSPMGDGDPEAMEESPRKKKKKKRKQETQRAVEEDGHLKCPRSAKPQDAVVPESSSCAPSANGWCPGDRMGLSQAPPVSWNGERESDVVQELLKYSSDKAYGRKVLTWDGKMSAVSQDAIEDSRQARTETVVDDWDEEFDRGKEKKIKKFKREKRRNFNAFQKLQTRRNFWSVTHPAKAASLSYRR
The experiment is described as above.

Chains of the proteins cited; added tags and fusions are not shown. Lines headed by an entry give the natural chain unless they say otherwise; changes in a name come on top. A line that says so, or that is headed by a name, gives the form on record, which may keep a tag or linker.
UniProt Q14694: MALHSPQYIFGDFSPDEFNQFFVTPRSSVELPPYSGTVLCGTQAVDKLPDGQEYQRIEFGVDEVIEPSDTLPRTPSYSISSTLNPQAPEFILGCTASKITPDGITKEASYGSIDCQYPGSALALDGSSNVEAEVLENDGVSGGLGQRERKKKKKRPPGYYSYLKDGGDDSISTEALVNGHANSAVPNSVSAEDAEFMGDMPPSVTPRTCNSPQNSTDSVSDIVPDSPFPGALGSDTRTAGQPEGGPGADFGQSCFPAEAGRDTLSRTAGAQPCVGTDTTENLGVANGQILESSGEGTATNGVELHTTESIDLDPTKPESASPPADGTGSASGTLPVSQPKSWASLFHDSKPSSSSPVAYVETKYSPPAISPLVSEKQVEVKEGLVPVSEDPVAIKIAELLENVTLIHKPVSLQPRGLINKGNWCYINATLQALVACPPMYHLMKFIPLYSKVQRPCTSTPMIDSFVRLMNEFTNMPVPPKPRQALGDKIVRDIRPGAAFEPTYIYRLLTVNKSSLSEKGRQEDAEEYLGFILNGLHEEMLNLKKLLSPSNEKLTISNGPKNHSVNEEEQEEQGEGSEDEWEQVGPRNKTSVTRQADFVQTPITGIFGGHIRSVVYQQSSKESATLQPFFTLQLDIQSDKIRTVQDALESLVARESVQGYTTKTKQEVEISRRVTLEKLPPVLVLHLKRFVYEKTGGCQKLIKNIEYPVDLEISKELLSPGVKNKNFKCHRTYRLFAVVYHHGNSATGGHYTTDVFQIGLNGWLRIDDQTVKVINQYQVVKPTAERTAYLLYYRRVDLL
UniProt Q93009: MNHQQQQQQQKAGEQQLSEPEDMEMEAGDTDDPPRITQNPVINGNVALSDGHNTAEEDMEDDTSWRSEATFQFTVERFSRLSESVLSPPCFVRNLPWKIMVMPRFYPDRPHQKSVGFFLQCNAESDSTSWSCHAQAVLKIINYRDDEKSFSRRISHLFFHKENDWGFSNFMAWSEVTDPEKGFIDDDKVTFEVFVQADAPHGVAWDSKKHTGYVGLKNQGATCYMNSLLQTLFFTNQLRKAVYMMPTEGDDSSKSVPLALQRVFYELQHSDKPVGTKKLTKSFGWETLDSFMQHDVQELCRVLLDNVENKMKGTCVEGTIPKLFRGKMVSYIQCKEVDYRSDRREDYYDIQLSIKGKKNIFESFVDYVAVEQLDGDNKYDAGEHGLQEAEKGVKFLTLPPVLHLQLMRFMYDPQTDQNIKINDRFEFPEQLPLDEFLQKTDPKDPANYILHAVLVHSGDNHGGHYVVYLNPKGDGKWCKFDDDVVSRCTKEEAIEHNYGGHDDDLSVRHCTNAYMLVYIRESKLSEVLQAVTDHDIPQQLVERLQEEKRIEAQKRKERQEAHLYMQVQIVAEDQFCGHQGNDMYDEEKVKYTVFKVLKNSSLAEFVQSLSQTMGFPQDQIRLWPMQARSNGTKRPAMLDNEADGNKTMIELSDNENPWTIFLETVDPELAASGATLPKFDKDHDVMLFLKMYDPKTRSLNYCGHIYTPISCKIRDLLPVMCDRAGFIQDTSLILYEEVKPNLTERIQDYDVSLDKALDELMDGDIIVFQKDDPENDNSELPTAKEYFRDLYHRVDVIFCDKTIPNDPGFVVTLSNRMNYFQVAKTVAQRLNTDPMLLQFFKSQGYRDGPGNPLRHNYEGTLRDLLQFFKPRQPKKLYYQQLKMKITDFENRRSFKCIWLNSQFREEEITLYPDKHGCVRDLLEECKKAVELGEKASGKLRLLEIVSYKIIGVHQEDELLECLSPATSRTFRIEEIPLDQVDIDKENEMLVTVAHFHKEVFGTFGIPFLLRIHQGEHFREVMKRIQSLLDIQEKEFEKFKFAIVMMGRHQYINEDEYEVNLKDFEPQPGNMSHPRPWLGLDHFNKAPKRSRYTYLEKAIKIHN
UniProt Q01196: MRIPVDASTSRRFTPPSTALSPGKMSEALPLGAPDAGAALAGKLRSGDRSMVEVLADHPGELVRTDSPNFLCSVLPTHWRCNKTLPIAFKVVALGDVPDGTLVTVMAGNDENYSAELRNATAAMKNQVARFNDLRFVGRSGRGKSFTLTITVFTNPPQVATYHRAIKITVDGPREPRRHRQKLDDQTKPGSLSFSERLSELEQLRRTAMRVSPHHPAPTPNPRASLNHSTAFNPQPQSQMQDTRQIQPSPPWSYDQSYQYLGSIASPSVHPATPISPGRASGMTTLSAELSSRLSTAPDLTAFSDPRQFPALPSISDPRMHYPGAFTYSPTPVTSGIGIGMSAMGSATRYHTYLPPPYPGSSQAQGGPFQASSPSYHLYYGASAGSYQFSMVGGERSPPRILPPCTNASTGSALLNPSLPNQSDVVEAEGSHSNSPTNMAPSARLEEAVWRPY
His-tagged full-length (FL) RUNX1 (Q01196-8, form named): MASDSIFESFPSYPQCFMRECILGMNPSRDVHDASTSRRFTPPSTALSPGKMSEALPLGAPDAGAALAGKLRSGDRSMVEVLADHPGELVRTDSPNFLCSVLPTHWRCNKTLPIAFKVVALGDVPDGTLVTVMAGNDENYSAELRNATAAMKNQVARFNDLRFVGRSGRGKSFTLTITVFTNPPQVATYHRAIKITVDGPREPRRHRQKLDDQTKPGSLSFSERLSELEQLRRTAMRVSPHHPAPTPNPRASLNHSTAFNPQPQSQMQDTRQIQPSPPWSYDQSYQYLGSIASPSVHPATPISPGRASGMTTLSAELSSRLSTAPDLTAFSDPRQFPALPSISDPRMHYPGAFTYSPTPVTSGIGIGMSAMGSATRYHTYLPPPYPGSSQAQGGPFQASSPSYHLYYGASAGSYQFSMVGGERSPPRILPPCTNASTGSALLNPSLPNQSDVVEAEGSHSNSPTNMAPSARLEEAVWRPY

Experiment [4] concerns the target T2, Flag-tagged USP4 (UniProt Q13107).
T2 sequence: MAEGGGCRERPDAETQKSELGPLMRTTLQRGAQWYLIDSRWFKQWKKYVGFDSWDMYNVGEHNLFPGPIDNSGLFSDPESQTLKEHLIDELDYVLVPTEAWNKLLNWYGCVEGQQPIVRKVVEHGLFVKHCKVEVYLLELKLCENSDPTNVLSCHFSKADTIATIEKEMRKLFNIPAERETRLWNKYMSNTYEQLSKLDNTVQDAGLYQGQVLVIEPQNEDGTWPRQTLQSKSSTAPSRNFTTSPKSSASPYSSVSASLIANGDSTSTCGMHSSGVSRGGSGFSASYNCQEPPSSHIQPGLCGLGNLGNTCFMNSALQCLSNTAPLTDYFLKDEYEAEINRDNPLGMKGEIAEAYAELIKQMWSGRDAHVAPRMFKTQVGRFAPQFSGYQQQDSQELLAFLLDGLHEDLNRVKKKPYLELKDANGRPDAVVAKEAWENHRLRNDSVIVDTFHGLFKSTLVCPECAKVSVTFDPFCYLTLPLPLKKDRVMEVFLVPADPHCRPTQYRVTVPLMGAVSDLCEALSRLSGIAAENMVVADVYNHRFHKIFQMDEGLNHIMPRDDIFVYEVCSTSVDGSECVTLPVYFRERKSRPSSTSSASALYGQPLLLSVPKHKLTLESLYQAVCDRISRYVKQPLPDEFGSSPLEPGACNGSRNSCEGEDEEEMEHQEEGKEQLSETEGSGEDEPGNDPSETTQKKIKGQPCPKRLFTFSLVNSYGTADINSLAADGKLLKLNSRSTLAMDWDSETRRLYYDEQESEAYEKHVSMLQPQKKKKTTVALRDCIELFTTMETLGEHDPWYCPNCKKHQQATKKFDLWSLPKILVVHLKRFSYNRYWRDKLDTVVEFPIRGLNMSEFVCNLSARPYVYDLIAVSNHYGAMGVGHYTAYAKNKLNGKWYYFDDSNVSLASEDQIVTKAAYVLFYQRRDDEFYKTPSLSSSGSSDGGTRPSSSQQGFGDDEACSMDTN
Described as above.

In experiment [5] the target is USP10, endogenous in LN229 and GBM2 cells (human (endogenous in LN229 and GBM2)) (UniProt Q14694). Description: co-IP; endogenous USP10 and RUNX1 in LN229 and GBM2 cells.
Experiment [6] deals with GST-USP10 C424A (UniProt Q14694). Nature of the experiment: pull-down; unubiquitinated or ubiquitinated His-RUNX1 incubated with purified GST-USP10 C424A coupled to glutathione-Sepharose beads, cell-free; retained proteins immunoblotted. On the technique in general: In western blotting, separated proteins are transferred to a membrane and probed.
Experiment [7] has as its target Flag-tagged full-length (FL) USP10, wild type (UniProt Q14694). Description: co-IP; His-RUNX1 and Flag-USP10 (full length, C424A or deletion mutants) in HEK293T cells; NETN buffer, protein A/G agarose beads, 4 °C, four washes.
Experiment [8] addresses Flag-tagged USP10 C424A (dominant negative form that lost its DUB activity) (UniProt Q14694). The description is as above.

Results are given in words; binding and its absence hold for the method and conditions named. In cells and extracts the contact can be indirect. Some entries that bind do so weakly or less than the wild type. For some assays here: Sequences can lack the tags named with a protein.

Regarding “RUNX1 (Runt-related transcription factor 1), endogenous in HEK293T cells (from UniProt Q01196 1-453)”, the binding result was “binds” in experiment [1], “no binding” in experiment [2], “no binding” in experiment [3] and “no binding” in experiment [4].
In the case of “RUNX1, endogenous in LN229 and GBM2 cells (from UniProt Q01196 1-453)”, the binding entry in experiment [5] was “binds”.
Consider “His-RUNX1, unubiquitinated or ubiquitinated, as used under cell-free conditions (from UniProt Q01196-8 1-480)”, for which the binding entry in experiment [6] is “binds”.
For the substance “His-tagged full-length (FL) RUNX1 (from UniProt Q01196-8 1-480)”, the binding result in experiment [7] and in experiment [8] was “binds” in each case.

The record behind these values is article PMC10033651.
